Measured values as given in publication PMC4336329 (PLoS ONE, 2015).
The whole screen tested about 310,000 compounds, of which about 14,000 (4.5%) showed an effect of 50% or more. The effect is printed as a negative number. This is one part of the list.

Target: human ether-à-go-go-related gene (hERG) potassium channel (human, UniProt Q12809)
Test: primary screen, population patch clamp on CHO cells stably expressing hERG
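Note: peak tail current of the secondary pulse compared with the same well before compound.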

Sequence of human ether-à-go-go-related gene (hERG) potassium channel (Q12809 whole entry, looked up): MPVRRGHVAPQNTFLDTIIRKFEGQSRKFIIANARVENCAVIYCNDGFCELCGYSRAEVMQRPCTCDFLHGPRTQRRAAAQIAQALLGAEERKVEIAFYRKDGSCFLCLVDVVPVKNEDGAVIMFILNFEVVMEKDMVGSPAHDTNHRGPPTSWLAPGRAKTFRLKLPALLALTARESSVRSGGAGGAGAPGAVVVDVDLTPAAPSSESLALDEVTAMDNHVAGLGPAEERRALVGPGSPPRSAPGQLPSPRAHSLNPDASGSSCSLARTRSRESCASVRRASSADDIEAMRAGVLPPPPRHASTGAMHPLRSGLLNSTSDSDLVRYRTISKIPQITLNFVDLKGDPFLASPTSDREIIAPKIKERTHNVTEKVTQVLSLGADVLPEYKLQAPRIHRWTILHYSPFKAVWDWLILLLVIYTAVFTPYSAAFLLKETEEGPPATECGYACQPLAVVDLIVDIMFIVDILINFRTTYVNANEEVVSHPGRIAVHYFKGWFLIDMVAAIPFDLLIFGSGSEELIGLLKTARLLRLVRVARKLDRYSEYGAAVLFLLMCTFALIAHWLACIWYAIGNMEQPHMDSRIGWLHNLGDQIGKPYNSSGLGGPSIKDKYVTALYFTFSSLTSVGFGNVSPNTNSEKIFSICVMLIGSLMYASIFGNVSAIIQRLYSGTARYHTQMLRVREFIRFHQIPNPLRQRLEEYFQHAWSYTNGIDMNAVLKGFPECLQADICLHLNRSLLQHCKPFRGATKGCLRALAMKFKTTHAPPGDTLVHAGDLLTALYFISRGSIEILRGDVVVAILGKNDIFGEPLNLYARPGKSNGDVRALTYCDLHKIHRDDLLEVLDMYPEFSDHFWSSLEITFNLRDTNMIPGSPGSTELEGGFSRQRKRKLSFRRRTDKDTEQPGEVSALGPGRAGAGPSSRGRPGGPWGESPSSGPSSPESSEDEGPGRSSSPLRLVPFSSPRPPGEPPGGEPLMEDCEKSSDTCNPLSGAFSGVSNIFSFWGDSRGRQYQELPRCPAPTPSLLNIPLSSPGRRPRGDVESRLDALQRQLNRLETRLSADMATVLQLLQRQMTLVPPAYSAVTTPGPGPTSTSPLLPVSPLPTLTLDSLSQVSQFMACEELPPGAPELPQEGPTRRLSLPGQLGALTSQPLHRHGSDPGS

Row | Compound | hERG current change (%, negative = inhibition) at 10uM
1 | O=S1OCCN1c1ccccc1 (stereo not drawn) | 10.4%
2 | CCCn1c(=O)c(C(=O)NCCc2ccccc2)c(O)c2ccccc21 | 20.2%
3 | CCCCNC(=O)Nc1nnc(C(C)(C)C)s1 | -3.96%
4 | COC(=O)c1cc2oc(C)cc2n1CC(=O)Nc1cc(C)cc(C)c1 | 18.5%
5 | Cc1ccc(NC(=O)c2nc[nH]c2C(=O)Nc2ccc(C)cc2)cc1 | 3.38%
6 | COc1ccccc1C1C(C#N)=C(N)Oc2cc(C)n(Cc3ccccn3)c(=O)c21 (stereo not drawn) | -2.81%
7 | Cc1cc(C)n(C2CC(=O)N(c3ccc(C)c(Cl)c3)C2=O)n1 (stereo not drawn) | 28.1%
8 | COc1ccc(NC(=O)CN2CCC(NC(=O)c3ccco3)CC2)c([N+](=O)[O-])c1 | -43.5%
9 | Cc1cc[n+](CCC(=O)O)c2ccccc12.[Br-] | 13.9%
10 | O=C(CC12CC3CC(CC(C3)C1)C2)N1CCOCC1 | -1.47%
11 | COc1ccc(-c2csc(NC(=S)NC(=O)c3ccc4ccccc4c3)n2)cc1OC | 24.8%
12 | COc1ccc2c(c1)OC[C@H]1[C@H]2N2C(=O)CN(C)C(=O)[C@@]2(C)[C@H]1c1ccccc1 | 2.07%
13 | CC(NC(=O)CN1C(=O)NC(c2ccccc2)(c2ccccc2)C1=O)c1cccs1 (stereo not drawn) | 13.3%
14 | O=[N+]([O-])c1ccc(-n2nncc2-c2ccc(Cl)cc2)cc1 | -72.7%
15 | O=C1NC(=S)N/C1=C\c1ccccc1OCc1ccc(C(=O)O)cc1 | -18.9%
16 | CC(C)(C)NC(=O)C(c1ccc(F)cc1)N(CC1CCCO1)C(=O)c1csnn1 (stereo not drawn) | 27.3%
17 | C=CCNC(=O)c1ccc(Sc2ccc(C)cc2)c([N+](=O)[O-])c1 | 8.32%
18 | COc1cccc(OC)c1C(=O)NC(=S)NNC(=O)[C@H]1C[C@@H]1c1ccccc1 | 9.52%
19 | O=C(CCS(=O)(=O)c1cccs1)Nc1ccc(C(=O)NC2CCN(Cc3ccccc3)CC2)cc1 | 9.05%
20 | N#Cc1c(-c2ccccc2)cc(-c2ccccc2)nc1SCCC(=O)O | 18.4%
21 | CC1(c2ccc(Cl)cc2)NC(=O)CS1 (stereo not drawn) | -10.2%
22 | CCCCOc1ccc(OCCNC(=O)c2ccco2)cc1 | -4.14%

Row | Compound | hERG current change (%, negative = inhibition) at 10uM
23 | CCCCOc1ccc(C(=O)NCC(=O)NCc2ccccn2)cc1 | 11.4%
24 | Cn1c(COc2cccc3ccccc23)nnc1SCC(=O)OC1CCCCC1 | -7.32%
25 | COc1ccc(N(C)S(=O)(=O)c2cccc(C(=O)NCC(c3cccs3)N(C)C)c2)cc1 (stereo not drawn) | -52.3%
26 | CCc1cc2c(N3CCN(c4nnc(CC)s4)CC3)ncnc2s1.Cl | -67.6%
27 | CCc1noc(C)c1C(=O)Nc1nnc(C2CCCCC2)s1 | -18.3%
28 | O=C1/C(=C\c2cccnc2)N2CCC1CC2 | 15.1%
29 | O=C(Oc1ccc(-n2cnnn2)cc1)c1ccco1 | 2.47%
30 | Cc1ccc(C(=O)CN2C(=O)NC3(CCc4ccccc43)C2=O)s1 (stereo not drawn) | 1.7%
31 | O=C1C(SC(F)(F)C(F)F)=C(C(F)(F)F)OC2C3C=CC(C3)C12 (stereo not drawn) | 0.387%
32 | CCCC(=O)N(Cc1cc(=O)[nH]c2ccccc12)c1ccc(C)cc1 | -3.22%
33 | CC(=O)c1cccc(S(=O)(=O)Nc2ccc3nc(C)sc3c2)c1 | 7.6%
34 | O=C(O)CCCC(=O)NCCCCc1ccccc1 | 15.4%
35 | COCCCNC(=O)Cn1ccc(NC(=O)OCc2ccccc2)nc1=O | 14.2%
36 | CCCCNC(=O)CSc1nc(CCC)nc2ccccc12 | 9.42%
37 | O=C(O)c1cc(Cl)c(Cl)cc1C(=O)NCc1ccco1 | 17.3%
38 | Cc1nc2ccccc2nc(C)c1=NOCc1ccccc1Cl | 4.62%
39 | COc1ccccc1C(=O)NC(CCSC)C(=O)NCC(c1ccco1)N(C)C (stereo not drawn) | -22.4%
40 | O=C(O)CCN1C(=O)/C(=C2\C(=O)N(Cc3ccc(F)cc3)c3ccccc32)SC1=S | 2.76%
41 | COc1cc(C)c(C(=O)CC(=O)c2c(C)cc(OC)cc2C)c(C)c1 | -1.45%
42 | Cc1ccc(S(=O)(=O)Nc2cccc(/C=C/C(=O)O)c2)cc1 | 16.8%
43 | COc1ccc(Nc2nc(Cl)nc(NCc3ccco3)n2)c(OC)c1 | 18.2%
44 | O=C(COc1ccc2c3c(c(=O)oc2c1)CCC3)NCc1ccccn1 | 1.46%

Row | Compound | hERG current change (%, negative = inhibition) at 10uM
45 | CC(C)OC(=O)C1C(=O)CC(C)(O)C(C(=O)OC(C)C)C1c1ccc(F)cc1 (stereo not drawn) | 0.605%
46 | COc1ccccc1C1CCN(C(=O)c2ccc(C(C)(C)C)cc2)CC1 | 0.194%
47 | COCCCN1C(=O)C(=O)/C(=C(/O)c2ccc(S(=O)(=O)N3CCCCC3)cc2)C1c1cccc(OC)c1 (stereo not drawn) | -11%
48 | CCOc1ccc(C(=O)Nc2ccccc2-c2ccccc2)cc1Cl | 22.7%
49 | CCOc1ccc(N(CC(=O)Nc2ccc(C)cc2C)S(C)(=O)=O)cc1 | 3.95%
50 | CC[C@]1(c2ccccc2)C(=O)N(C(=O)OC)N1C(=O)OC | 25.2%
51 | O=C(CSc1nnc(NC(=O)c2ccccc2Cl)s1)Nc1ccc2c(c1)oc1ccccc12 | 9.16%
52 | NC(=O)CSc1ccc(S(=O)(=O)N2CCCCC2)cn1 | 12.9%
53 | NC(=O)C1CCCN(C(=O)CCc2nnc(C3(c4ccc(Cl)cc4)CCC3)o2)C1 (stereo not drawn) | -4.11%
54 | COc1ccc(S(=O)(=O)N(C)c2ccc(OCC(=O)Nc3cc(C)on3)cc2)cc1 | -15.3%
55 | CCCCCOC(=O)Cn1c(SCC(=O)Nc2ccccc2)nc2c1c(=O)[nH]c(=O)n2C | -18.3%
56 | Cc1nnc2c(SC(C)C)nc3ccccc3n12 | -77.2%
57 | O=C(COc1ccc(/C=N/NC(=O)c2ccccc2O)cc1)Nc1ccc([N+](=O)[O-])cc1 | 13.7%
58 | CCC(C)Sc1cc(C)c(C#N)c2nc3ccccc3n12 (stereo not drawn) | -35.7%
59 | COc1ccc(NS(=O)(=O)c2cccc(C(=O)NCC(c3ccccc3)N(C)C)c2)cc1 (stereo not drawn) | -27%
60 | CN(C)S(=O)(=O)c1cccc(C(=O)Nc2cc(Cl)cc(Cl)c2)c1 | 4.25%
61 | COc1cc([N+](=O)[O-])ccc1NC(=S)NNC(=O)c1ccc2c(c1)OCO2 | 5.52%
62 | Nc1nc(=S)c2ncn(C3CCCC3)c2[nH]1 | 18%
63 | CN(C)S(=O)(=O)c1ccc(NC(=O)CN2CCC(Cc3ccccc3)CC2)cc1 | -32.8%
64 | COC(=O)C(C)Sc1nc2c(c(-c3ccc(OC)cc3)c1C#N)-c1ccccc1C2=O (stereo not drawn) | 14.3%
65 | CCN1C(=O)[C@H]2[C@@H](c3ccc(-c4ccc(Cl)c(Cl)c4)c(OC)c3)N[C@@](C)(C(=O)OC)[C@H]2C1=O.O=C(O)C(F)(F)F | 15.7%
66 | O=C(c1n[nH]c2ccccc12)N1CCN(c2ccc(F)cc2)CC1 | -7.98%

Row | Compound | hERG current change (%, negative = inhibition) at 10uM
67 | Cc1ccc(S(=O)(=O)Cn2nnnc2CN2CCN(C(=O)c3ccco3)CC2)cc1 | -15.8%
68 | Cc1nn(C)cc1/C=N/NC(=O)CSc1ccccn1 | 6.54%
69 | O=C(CCN1C(=O)c2ccc([N+](=O)[O-])cc2C1=O)Nc1ccccc1C(=O)O | 14.6%
70 | C[C@H](NC(=O)N1C[C@H]2C[C@@H](C1)c1cccc(=O)n1C2)C(=O)Nc1cccc(F)c1 | 2.4%
71 | COCCN(C(=S)Nc1ccc(OC)c(Cl)c1)C1CCN(C(C)C)CC1 | -35.9%
72 | COc1ccc(N2CCN(C(=O)C3CCCN3S(=O)(=O)c3cccc4nsnc34)CC2)cc1 (stereo not drawn) | -30.6%
73 | COc1ccc(NC(=O)C2CCN(c3ncnc4c3nc3n4CCCCC3)CC2)c(OC)c1 | -8.8%
74 | CCOc1ccc(OCC)c(NC(=O)CN2CCN(CC(=O)NC(C)C)CC2)c1.Cl | 9.43%
75 | Cc1c(N)cc(N)cc1C(=O)O | 8.42%
76 | O=[N+]([O-])c1ccccc1CNCCCCO | -3.05%
77 | CN(C)S(=O)(=O)c1ccc(Cl)c(NC(=O)CN2CCc3ccccc3C2)c1 | -12.7%
78 | CCN(CC)S(=O)(=O)c1ccc(NC(=O)CSc2nnc(-c3ccc(F)cc3)o2)cc1 | -2.4%
79 | Cc1cc2oc(C(=O)N(Cc3ccccc3)C3CCS(=O)(=O)C3)cc(=O)c2cc1Cl (stereo not drawn) | -14.5%
80 | CCOc1ccccc1NC(=O)Nc1cc(C(=O)O)ccc1C | 22.1%
81 | COc1ccc2[nH]c(C(=O)NCc3ccccc3)c(C)c2c1.Cl | 7.03%
82 | CC(=Nc1ccccc1)C1=C(O)CC(C)(C)CC1=O | 12%
83 | CC1CCN(C(=O)c2ccc(S(=O)(=O)Cc3cccc(F)c3)c([N+](=O)[O-])c2)CC1 | 6.75%
84 | O=C(NC(=S)NC1CC1)c1cccnc1 | -0.582%
85 | Cc1cc(C)nc(Nc2n[nH]c(C)n2)n1 | 16.4%
86 | COc1ccc(Nc2ccc(N3C(=O)CC(C)C3=O)cc2[N+](=O)[O-])cc1OC (stereo not drawn) | 3.58%
87 | COC(=O)CCCCC1SCC(NC(=O)OC)C1NC(=O)OC (stereo not drawn) | 2.09%
